From ChEMBL document CHEMBL1201862, “PubChem BioAssay data set” (2004)
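48-hour exposure; five concentrations; linearly interpolated endpoints. GI50: concentration for 50% inhibition of growth.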 Activity calls are given as the source filed them. Rule as the data show it: active = GI50 up to about 1.1 µM and inactive = higher.

test system: NCI-H322M; test: NCI-60 cell line screen, 48 h

**Q.** For `Cc1ccc(S(=O)(=O)NNC(=O)Nc2ccc(Cl)cc2)cc1`, which GI50 is on record?
**A.** inactive: > 100 µM

**Q.** `O=C(O)CCCCn1cnc2c(S)ncnc21` was tested. Which GI50 did it give?
**A.** inactive: > 100 µM

**Q.** `CC1CN=C(Nc2ccccc2)S1` (configuration not stated) was tested. Which GI50 did it give?
**A.** inactive: > 100 µM

**Q.** Which GI50 does the source give for `C=CS(=O)(=O)c1c2cc(OC)ccc2nc2ccc(OC)cc12` here?
**A.** inactive: 14.9 µM

**Q.** For `CN(C)/C=C/c1c2c(nc3ccccc13)C(=O)c1cccnc1C2=O`, which GI50 is on record?
**A.** active: 0.649 µM

**Q.** With `COc1cc(NCC2COc3c(ccc(OC)c3OC)C2=O)c([N+](=O)[O-])cc1OC` (configuration not stated) as the compound, how does the GI50 read?
**A.** inactive: > 100 µM

**Q.** Which GI50 does the source give for `O=c1[nH]/c(=C/c2ccc3c(c2)OCO3)c(=O)[nH]/c1=C/c1ccc2c(c1)OCO2` here?
**A.** inactive: > 10 µM

**Q.** For `COc1cc(/C=C/c2ccc(OC)c(OC)c2)oc(=O)c1`, which GI50 is on record?
**A.** inactive: > 250 µM

**Q.** For `COC(=O)NC(=O)c1cn(CCCOC(=O)CCCCCCCCC(=O)OCCCn2cc(C(=O)NC(=O)OC)c(=O)[nH]c2=O)c(=O)[nH]c1=O`, which GI50 is on record?
**A.** inactive: > 100 µM

**Q.** For `CC12CC(C#N)(C#N)C(C#N)(CO1)C(=N)O2` (configuration not stated), which GI50 is on record?
**A.** inactive: > 100 µM

**Q.** Which GI50 does the source give for `CN(C)C(=O)OC(Cn1cncn1)(Cn1cncn1)c1ccc(Cl)cc1Cl` here?
**A.** inactive: > 100 µM

**Q.** `C=CC(O)(CBr)CCC(Br)C(C)(C)Cl` (configuration not stated) was tested. Which GI50 did it give?
**A.** inactive: > 10 µM

**Q.** How did the GI50 turn out when `Nc1nc2cc(Cl)ccc2n1N` was run?
**A.** inactive: > 100 µM

**Q.** For `CCOC(=O)/C=C(/C(=O)OCC)n1ccc(N)nc1=O`, which GI50 is on record?
**A.** inactive: > 100 µM

**Q.** `CCc1cc2c(cc1CCCC(=O)O)CC1(Cc3ccc(C(=O)O)cc3C1)C2` (configuration not stated) was tested. Which GI50 did it give?
**A.** inactive: > 100 µM

**Q.** For `CCN(CC)CCCC(C)Nc1c2ccc(Cl)cc2nc2cc(Cl)ccc12` (configuration not stated), which GI50 is on record?
**A.** inactive: 4.5 µM

**Q.** For `C[C@]12CC[C@H](OC(=O)Nc3ccccc3)CC1=CC[C@@H]1C2CC[C@]2(C)/C(=N/OC(=O)Nc3ccccc3)CCC12` (some centres not stated), which GI50 is on record?
**A.** inactive: > 100 µM

**Q.** `O=c1oc2ccc(Cl)cc2cc1-c1cn2cc(Cl)ccc2n1` was tested. Which GI50 did it give?
**A.** inactive: > 54.3 µM

**Q.** With `C=C1C(=O)O[C@@H]2/C=C(\C)CC/C=C(\C)CC[C@@]12O` as the compound, how does the GI50 read?
**A.** inactive: 13.9 µM

**Q.** With `CC1(C)CC(=O)C2=C(C1)OC1=C(CC(C)(C)CC1=O)C2c1ccccc1[N+](=O)[O-]` (configuration not stated) as the compound, how does the GI50 read?
**A.** inactive: > 100 µM

**Q.** `CN(C)C(=O)C(F)(F)C(c1ccc(Br)cc1)C1C(=O)N(C)C(=O)N(C)C1=O` (configuration not stated) was tested. Which GI50 did it give?
**A.** inactive: > 100 µM

**Q.** For `COC(=O)CCC(=O)N1CC1C` (configuration not stated), which GI50 is on record?
**A.** inactive: > 100 µM

**Q.** `C[C@]12CC[C@H]3[C@@H](CC=C4C[C@@H](N5CCCC5)CC[C@@]43C)[C@@H]1C[C@H](N1CCOCC1)[C@@H]2O` was tested. Which GI50 did it give?
**A.** inactive: 96.2 µM

**Q.** How did the GI50 turn out when `CC(C(N)C(=O)NC(C(=O)O)C1OC(n2ccc(=O)[nH]c2=O)C(O)C1O)C(O)c1ccc(O)cn1` (configuration not stated) was run?
**A.** inactive: > 100 µM

**Q.** How did the GI50 turn out when `CN(C(=O)C12C3C4C1C1C2C3C41C(O)C(C)(C)C)C(C)(C)C` (configuration not stated) was run?
**A.** inactive: > 100 µM

**Q.** For `c1cc2c(c(-c3c4ccccc4nc4ccccc34)c1)CC1(CC2)OCCO1`, which GI50 is on record?
**A.** inactive: > 100 µM

**Q.** Which GI50 does the source give for `CCN(CC)CCCNc1c2cc(OC)ccc2nc2cccc([N+](=O)[O-])c12` here?
**A.** active: 0.149 µM

**Q.** With `COc1ccc2cc(/C=N\NC(=O)Nc3cccc4ccccc34)ccc2c1` as the compound, how does the GI50 read?
**A.** inactive: 33 µM

**Q.** For `COc1cc2c(c3nc4ccccc4nc13)-c1ccc(SC)c(=O)cc1[C@@H](NC(C)=O)CC2`, which GI50 is on record?
**A.** active: 0.158 µM

**Q.** Which GI50 does the source give for `COC(=O)c1ccccc1C1CN=NC12Cc1c(ccc3c1CCC3)C2=O` (configuration not stated) here?
**A.** inactive: > 100 µM

**Q.** Which GI50 does the source give for `Cc1c(-c2cc3n(n2)C(c2cccs2)C(C#N)=C(c2ccccc2)N3)c(=O)n(-c2ccccc2)n1C` (configuration not stated) here?
**A.** inactive: > 100 µM

**Q.** How did the GI50 turn out when `CC(=O)Nc1ccc(-c2nnc(SCC(=O)Nc3ccccc3)o2)cc1` was run?
**A.** inactive: > 100 µM

**Q.** With `OC1C[C@H](c2ccccc2)C2(C(O)c3ccccc3C2O)[C@@H](c2ccccc2)C1` (some centres not stated) as the compound, how does the GI50 read?
**A.** inactive: > 100 µM

**Q.** For `Cc1cc(NC(=O)C(=O)Cc2nc3ccccc3s2)ccc1Cl`, which GI50 is on record?
**A.** inactive: > 58.5 µM

**Q.** With `COC(=O)c1c2c(cc3c1CC1(Cc4cc5c(cc4C1)CCC5)C3)CCC2` as the compound, how does the GI50 read?
**A.** inactive: > 100 µM

**Q.** `O=C1C=C/C(=C/[C@H]2SSC=C[C@]23C=CC(=O)C3)C1` was tested. Which GI50 did it give?
**A.** inactive: 29 µM

**Q.** With `NC(CCCCNCc1ccccc1)C(=O)O` (configuration not stated) as the compound, how does the GI50 read?
**A.** inactive: > 100 µM

**Q.** `Cc1ccc(C(=O)/C=C2\Nc3cccnc3NC2=O)cc1` was tested. Which GI50 did it give?
**A.** inactive: > 100 µM

**Q.** Which GI50 does the source give for `C/C=C1\Oc2ccc(OC)cc2S1(=O)=O` here?
**A.** inactive: > 100 µM

**Q.** `O=[N+]([O-])c1ccc2c(c1)C1=C(CO2)Cc2ccccc2O1` was tested. Which GI50 did it give?
**A.** inactive: 32.4 µM

**Q.** For `N#Cc1nc(/C=C/c2ccccc2)oc1N`, which GI50 is on record?
**A.** inactive: > 100 µM

**Q.** How did the GI50 turn out when `CC(=N/NC(=S)Nc1c(C)n(C)n(-c2ccccc2)c1=O)/C(C)=N\NC(=S)Nc1c(C)n(C)n(-c2ccccc2)c1=O` was run?
**A.** inactive: > 100 µM

**Q.** `CC(=O)NC1C(OCc2ccccc2)OC(CO)C(O)C1OC(C)C(=O)N[C@@H](C)C(=O)N[C@H](CCC(=O)OCCNc1c2ccccc2nc2cccc([N+](=O)[O-])c12)C(N)=O` (some centres not stated) was tested. Which GI50 did it give?
**A.** active: 0.00284 µM

**Q.** `N#Cc1ccccc1NC(=O)C(O)C(O)C(O)C(O)C=O` (configuration not stated) was tested. Which GI50 did it give?
**A.** inactive: > 100 µM

**Q.** Which GI50 does the source give for `CCOC(=O)/C(=C/c1ccccn1)C(=O)c1ccccc1` here?
**A.** inactive: 16.9 µM

**Q.** With `C=CCNC(=O)N1CC(C)C(=O)Nc2ccccc21` (configuration not stated) as the compound, how does the GI50 read?
**A.** inactive: > 100 µM

**Q.** Which GI50 does the source give for `Clc1ccc(OCc2nnc3sc(-c4ccc(-c5ccc(Cl)cc5Cl)o4)nn23)cc1` here?
**A.** inactive: > 100 µM
